“And” between values parts separate entries of the source, which are not always exact repeats. Equal entries are not always repeated. Hit rate of the full screen: of about 420,000 compounds, about 50,000 (12%) were called active. Inconclusive means that the source gave no clear call. Such entries were picked first, then a sample of the others. Calls come from the whole dose curve; as a rule, active = well fitted inhibition curve with a large enough effect; inconclusive = small, poorly fitted or top-dose-only effect; inactive = flat fitted curve, though single readings scatter. Potencies beside an inconclusive call are fits to weak or partial responses and may not hold up.
experiment: qHTS for Inhibitors of human tyrosyl-DNA phosphodiesterase 1 (TDP1): qHTS in cells in presence of CPT; conditions: chicken DT40 Tdp1-/-;hTDP1 cells + 20 nM CPT, ATP luminescence, 48 h; activity change, negative = growth inhibition: at 46.2 µM (top of the series) unless noted; note: nearly all actives have a fitted effect of over 55% in size
How it was run: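 Cell growth measured by CellTiter-Glo luminescence after a minimum 48 h, 37 C compound exposure with 20 nM CPT in Tdp1-knockout DT40 cells stably expressing hTDP1, seeded 400/well; qHTS titration format.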
% is set by controls: 0 for no effect and ±100 for the full control effect; potency is the fitted concentration of half-maximal effect; tags give direction and shape of the fitted curve.

SMILES | Potency | activity change, negative = growth inhibition
COc1cc2cc(C(=O)Nc3ccccc3)c(N)nc2cc1OC | inconclusive: 29.1 µM [inhibitor, single point] | –
CC1CC(C)CN(S(=O)(=O)c2ccc(C(C)(C)C)cc2)C1 (stereo not drawn) | inconclusive: 23.1 µM [inhibitor, single point] | –
CCN1CCN(CCCNC(=O)c2cc3sccc3n2CC)CC1 | – | inactive: -2.78%
CN1CCN(S(=O)(=O)c2cccs2)CC1 | – | inactive: 0.363%
O=C(CN1C(=O)NC(Cc2c[nH]c3ccccc23)C1=O)Nc1cccc(S(=O)(=O)N2CCOCC2)c1 (stereo not drawn) | inconclusive: 13 µM [inhibitor, partial curve] | –
CCSc1ccccc1C(=O)Nc1ccc(S(=O)(=O)NC(C)=O)cc1 | – | inactive: 19.4%
COc1ccc2c(c1)C(=O)N1[C@H]3c4cc(Br)ccc4OC[C@@H]3[C@H](c3ccccc3)[C@]1(C)C(=O)N2 | inconclusive: 29.1 µM [inhibitor, single point] | –
CC(C)CCNc1ncnc2c1cnn2Cc1ccccc1Cl | active: 29.1 µM | –
CCOC(=O)c1ccc(OCC2NCCc3cc(OC)c(OC)cc32)cc1 (stereo not drawn) | inconclusive: 13 µM [inhibitor, partial curve] | –
FC(F)Oc1ccc(/C=N/NC(=S)Nc2cc(C(F)(F)F)ccc2Cl)cc1 | inconclusive: 18.4 µM [inhibitor, single point] | –
COc1ccc2[nH]c3c(c2c1)CCN(C(=O)c1cccc(Cl)c1)C3c1ccc(F)cc1 (stereo not drawn) | inconclusive: 18.4 µM [inhibitor, single point] | –
COC(=O)C12CC3CC(C1)CC(n1cnc(Cl)n1)(C3)C2 | inconclusive: 23.1 µM [inhibitor, partial curve] | –
O=C(C1CC1)N1CCc2cc(S(=O)(=O)NCCCN3CCCCC3)ccc21 | inconclusive: 32.6 µM [inhibitor, partial curve, poor fit] | –
COc1cc(CNc2ccc3[nH]c(=O)[nH]c3c2)ccc1OCc1ccc(Cl)cc1 | inconclusive: 29.1 µM [inhibitor, single point] | –
CCOC(=O)c1cc(-c2ccc(F)cc2)n(CC(=O)NC2CCCCCC2)c1C | active: 16.4 µM | –
CC(C)(C)c1ccc(S(=O)(=O)N2CCN(CC(=O)N3CC(=O)Nc4ccccc43)CC2)cc1 | inconclusive: 25.9 µM [inhibitor, single point] | –
COc1cc(OC)cc(C(=O)Nc2ccc([N+](=O)[O-])cn2)c1 | inconclusive: 29.1 µM [inhibitor, single point] | –
S=C(NCc1ccccc1)NCc1cccc(Cl)c1 | – | inactive: 0.791%
Cc1cc(N2CCN(C(=O)Nc3ccccc3C#N)CC2)c2ccccc2n1 | – | inactive: -16.7%
O=C(CSc1nc2nn(-c3ccccc3)c(=O)c-2c2n1CCCCC2)Nc1ccc(F)c(F)c1 | inconclusive: 29.1 µM [inhibitor, single point] | –
Cc1cc(C)c2[nH]c(=O)c(C(c3nnnn3C(C)(C)C)N(Cc3ccco3)CC3CCCO3)cc2c1 (stereo not drawn) | inconclusive: 25.1 µM [inhibitor, single point] | –
CC1Cc2ccccc2N1c1ncnc2c1nnn2Cc1ccccc1Cl (stereo not drawn) | inconclusive: 20.6 µM [inhibitor, partial curve] | –

SMILES | Potency | activity change, negative = growth inhibition
N#CC(c1ccc([N+](=O)[O-])cc1)C(CC(=O)c1ccccc1)c1ccccc1 (stereo not drawn) | inconclusive: 23.1 µM [inhibitor, single point] | –
Cc1nc2sccn2c(=O)c1S(=O)(=O)Nc1cc(Cl)ccc1O | inconclusive: 16.4 µM [inhibitor, single point] | –
COC(C(=O)C(O)C(C)O)C1Cc2cc3cc(OC4CC(OC5CC(O)C(O)C(C)O5)C(O)C(C)O4)c(C)c(O)c3c(O)c2C(=O)C1OC1CC(OC2CC(OC3CC(O)C(OC)C(C)O3)C(O)C(C)O2)C(O)C(C)O1 (stereo not drawn) | active: 0.103 µM | –
CCOC(=O)c1sc(C)c2c1NC(c1ccc(Cl)cc1)NC2=O (stereo not drawn) | inconclusive: 29.1 µM [inhibitor, single point] | –
CCCn1c(=O)c2c(nc3n2CCN3Cc2ccco2)n(C)c1=O | – | inactive: 3.77%
COCCn1c(=S)[nH]c2cc(C(=O)NCCc3ccc(OC)c(OC)c3)ccc2c1=O | – | inactive: -21.7%
COc1ccc2c(c1)CCc1cnc(-n3ncc(C(=O)NCC(C)(C)CN(C)C)c3C)nc1-2 | – | inactive: 4.92% [at 9.04 µM]
O=C(Cc1ccccc1)Nc1cc(Cl)ccc1Sc1ccccc1 | – | inactive: -0.544%
CCCCN1CCc2nc(Nc3ccc(OC)cc3OC)ncc2C1 | inconclusive: 29.1 µM [inhibitor, partial curve] | –
CCOCCCNCc1ccc(OC)cc1 | – | inactive: -26.8%
CC1(C(=O)NS(=O)(=O)C2CC2)CCCN(C(=O)c2cccc(OC(F)(F)F)c2)C1 (stereo not drawn) | inconclusive: 2.31 µM [inhibitor, partial curve] | –
CN(C)CC/C=C1/c2ccccc2CSc2ccccc21 | inconclusive: 9.03 µM [inhibitor, single point] | –
CCC(=O)N1N=C(c2ccc(NS(=O)(=O)c3ccc(C)cc3)cc2)CC1c1ccco1 (stereo not drawn) | inconclusive: 29.1 µM [inhibitor, single point] | –
COc1cccc(CSc2nc3ccccc3cc2C=O)c1 | active: 1.16 µM | –
COC1=C(N)C(=O)c2nc(C)ccc2C1=O | active: 5.17 µM | –
COc1ccc(SCCN2CC[C@@H](NC(=O)OCc3ccccc3)CCC2=O)cc1 | inconclusive: 35.5 µM [inhibitor, single point] and inconclusive: 29.1 µM [inhibitor, single point] | –
Cc1ccc(CN(Cc2ccco2)C(=O)c2ccc(OCC(C)C)cc2)cc1 | inconclusive: 29.1 µM [inhibitor, single point] | –
CCOc1ccc2nc(N(Cc3ccccc3)C(=O)CCNC(C)=O)sc2c1 | – | inactive: 6.02%
Cc1cccc(OCCCC(=O)Nc2nccs2)c1 | inconclusive: 29.1 µM [inhibitor, single point] | –
NC(CO)c1csc(Nc2ccc(C(F)(F)F)cn2)n1 (stereo not drawn) | inconclusive: 25.9 µM [inhibitor, single point] | –
COC(=O)c1cn(C(=O)c2cc(OC)cc(OC)c2)c2ccccc12 | inconclusive: 29.1 µM [inhibitor, single point] | –
